Data from the supplement of paper PMC11383711.
This is one part of the list. Binding of human antibodies (heavy:light variable regions, tested as scFv in one mRNA-display pool) to influenza hemagglutinin, with or without the stem antibody CR9114 bound first. Score = (mean enrichment − median) / interquartile range of that screen; higher = more enriched, 0 = typical non-binder. Active = above the paper's cut-off per screen: stems 28; unblocked H1 Solomon Islands 5, H1 Michigan 3, H3 5, H5 19, H7 2.85, both B 5; blocked 9, 7, H5 10, H7 10, B Phuket 10, B Lee 11.5. Scores are scaled within each screen and are no affinities; replicates correlate at about 0.6 to 0.9, and antibodies rare in the pool are noisier.

B1: R95-2G09 (protein)
chain 1: QVQVQESGPGLVKPSETLSLTCNVSGGSISSSAYYWGWIRQSPGKGLEWIGSLHYSGSTDYNPSLKSRVTIFADTSKNQFSLKLTSVTAADTAVYYCARRGYNGNYYEYFHHWGQGTLVTVSS
chain 2: DIVMTQSPLSLPVTPGEPASISCRSSQSLLHSNGYNYLDWYLQKPGQSPQLLIYLGSSRASGVPDRFSGSGSGTDFTLKIRRVEADDVGVYYCMQALQTPHTFGQGTKLEIK
B2: W85-3F09 (protein)
chain 1: EVQLVESGGGVVQPGRSLRLSCAASGFTFSSFGMHWVRQAPGKGLEWMAVISYNGINKDYADSVKGRFTISRDNSKNTLYLQMNSLRAEDTAVYYCAAGQRQFDYFPDGDYYYFDSWGQGTLVTVSS
chain 2: QSALTQPPSASGTPGQRVTISCSGSSSNIGSYYVYWYQQLPGTAPKVLIYRNDRRPSGLPDRFSGSKSGTSASLAISGLRSEDEGDYYCASWDNSLSGPVFGGGTKLTV
B3: antibody 1F06 (protein)
chain 1: VQLLESGGGLVQPGGSLRLSCAASGLTFSSYAMSWVRQAPGKGLEWVSVIYSDGSGTWYADSVKGRFTISRDNSKNTLFLQMSSLRAEDTAVYYCAKDRFRGSWIDVFDIWGQGTMVTVSS
chain 2: DIQMTQSPSSLSASVGDRVTITCQASQDMSNSLNWYHQKPGKAPKLLIYGASHLEAGVPSRFSGSGSGTDFTFTISSLQPEDIGTYYCQRFKAFGQGTKVEIK
B4: 051-10-2A05 (protein)
chain 1: EVQLVESGGGLVQPGGSLRLSCAASGFIFSSYWMSWVRQAPGKGLEWVANINQGGSEKQYVDSVKGRFTISRDNAKKSLFLQMNRLRAEDTAVYYCVRVGAYGDTYHDYYGMDVWGQGTTVTVSS
chain 2: SYELTQAPSVSVAPGQTARITCGGNNIGSKSVQWYQQKPGQAPVMVVFDGSDRPSGIPERFSGANSGNTATLTISRVEAGDEADYHCQVWDSSSERHVVFGGGTKLTVL
B5: K77-2H03 (protein)
chain 1: QVQLVQSGAEVRKPGASVKVSCRASGYTFTSYHLHWVRQAPGQGLEWMGIINLSGGSITYAQKFQGRVTMTRDTSTSTAYMELSSLRSDDTAVYYCARRGFIVTSHLYYYGMDVWGQGTTVTVS
chain 2: EIVLTQSPGTLSLSPGERATLSCRASQSVSSSYLAWYQQKPGQAPRLLIYGASSRATGIRDRFSGYGSGTDFTLTISRLEPEDCAVYYCQQYGRYGTFGQGTKVEIK
B6: K77-1G04 (protein)
chain 1: QVHLVQSGAEVKNPGASVKVSCKASGYTFTEYYMHWVRQSPGQGLEWMGWINPKTGGTNYAQKFQGWVTMTRDTSIKTVYMELSRLRCDDTAVYYCARDDGYTTGADVWGRGTTVTVSS
chain 2: SYELTQPPSVSVSPGQTARITCSGDALPKQYAYWYQQKPGQAPVMVIYKDSERPSGIPERFSGSSSGTTVTLTISGVQAEDEADYYCQSADSGGTYQLFGGGTKLT

biological target: Influenza A H1N1 A/Michigan/45/2015 hemagglutinin ectodomain; experiment: mRNA display binding score; higher = more enriched on the antigen; conditions: antigen blocked with: 2 µM CR9114 IgG
Experimental: (§1)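 A pool of natively paired antibodies, displayed as scFv on mRNA, was selected once on antigen-coated beads and sequenced before and after; two replicates.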

Row | Binder | mRNA display binding score
1 | B1 | inactive: 0.0775
2 | B2 | inactive: 1.05
3 | B3 | inactive: -0.0479
4 | B4 | inactive: -0.241
5 | B5 | inactive: -0.187
6 | B6 | inactive: -0.535

same assay, conditions: antigen blocked with: nothing

Row | Binder | mRNA display binding score
7 | B1 | inactive: 0.221
8 | B2 | inactive: 0.942
9 | B3 | inactive: -0.0185
10 | B4 | inactive: -0.155
11 | B5 | inactive: -0.0563
12 | B6 | inactive: -0.065

biological target: Influenza A H1N1 A/Solomon Islands/3/2006 hemagglutinin ectodomain; experiment: as above; conditions: antigen blocked with: 2 µM CR9114 IgG
Experimental: as §1

Row | Binder | mRNA display binding score
13 | B1 | inactive: 0.467
14 | B2 | inactive: -0.143
15 | B3 | active: 39.2
16 | B4 | inactive: 1.07
17 | B5 | inactive: -0.172
18 | B6 | inactive: -0.221

same assay, conditions: antigen blocked with: nothing

Row | Binder | mRNA display binding score
19 | B1 | inactive: -0.0261
20 | B2 | inactive: -0.209
21 | B3 | active: 13.4
22 | B4 | active: 13.7
23 | B5 | inactive: -0.326
24 | B6 | inactive: -0.467

biological target: Influenza A H3N2 A/Singapore/INFIMH-16-0019/2016 hemagglutinin ectodomain; experiment: as above; conditions: antigen blocked with: nothing
Experimental: as §1

Row | Binder | mRNA display binding score
25 | B1 | inactive: 0.415
26 | B2 | inactive: -0.402
27 | B3 | inactive: -0.522
28 | B4 | inactive: 0.91
29 | B5 | inactive: 1.96
30 | B6 | inactive: 0.66

biological target: Influenza A H5N1 A/Qinghai/1A/2005 hemagglutinin ectodomain; experiment: as above; conditions: antigen blocked with: 2 µM CR9114 IgG
Experimental: as §1

Row | Binder | mRNA display binding score
31 | B1 | inactive: 0.398
32 | B2 | inactive: -0.0409
33 | B3 | inactive: -0.69
34 | B4 | inactive: -0.615
35 | B5 | inactive: -0.733
36 | B6 | inactive: -0.756

same assay, conditions: antigen blocked with: nothing

Row | Binder | mRNA display binding score
37 | B1 | inactive: 0.078
38 | B2 | inactive: 0.51
39 | B3 | inactive: -0.305
40 | B4 | inactive: -0.237
41 | B5 | inactive: -0.423
42 | B6 | inactive: 0.0457

biological target: Influenza A H7N9 A/Shanghai/2/2013 hemagglutinin ectodomain; experiment: as above; conditions: antigen blocked with: 2 µM CR9114 IgG
Experimental: as §1

Row | Binder | mRNA display binding score
43 | B1 | inactive: -0.349
44 | B2 | inactive: -0.725
45 | B3 | inactive: -0.568
46 | B4 | inactive: -1.07
47 | B5 | inactive: -0.671
48 | B6 | inactive: 0.202

same assay, conditions: antigen blocked with: nothing

Row | Binder | mRNA display binding score
49 | B1 | inactive: 0.234
50 | B2 | inactive: 0.0727
51 | B3 | inactive: -0.308
52 | B4 | inactive: -0.376
53 | B5 | inactive: 0.146
54 | B6 | inactive: -0.233

biological target: Influenza B/Lee/1940 hemagglutinin ectodomain; experiment: as above; conditions: antigen blocked with: 2 µM CR9114 IgG
Experimental: as §1

Row | Binder | mRNA display binding score
55 | B1 | inactive: 4.65
56 | B2 | inactive: -0.726
57 | B3 | inactive: 0.7
58 | B4 | inactive: 0.568
59 | B5 | inactive: -0.424
60 | B6 | inactive: 0.931

same assay, conditions: antigen blocked with: nothing

Row | Binder | mRNA display binding score
61 | B1 | active: 14.2
62 | B2 | inactive: 0.117
63 | B3 | inactive: -0.156
64 | B4 | inactive: 0.128
65 | B5 | inactive: -0.152
66 | B6 | inactive: -0.191

biological target: Influenza B/Phuket/3073/2013 hemagglutinin ectodomain; experiment: as above; conditions: antigen blocked with: 2 µM CR9114 IgG
Experimental: as §1

Row | Binder | mRNA display binding score
67 | B1 | inactive: 0.081
68 | B2 | inactive: 0.0752
69 | B3 | inactive: -0.324
70 | B4 | inactive: -0.161
71 | B5 | inactive: -0.368
72 | B6 | inactive: -0.528

same assay, conditions: antigen blocked with: nothing

Row | Binder | mRNA display binding score
73 | B1 | inactive: -0.28
74 | B2 | inactive: 1.11
75 | B3 | inactive: -0.173
76 | B4 | inactive: -0.257
77 | B5 | inactive: -0.0535
78 | B6 | inactive: -0.172
